Measured values taken from PubChem BioAssay AID504845 (National Center for Advancing Translational Sciences (NCATS), 2011).
About 150 (0.038%) of roughly 390,000 compounds were called active. Inconclusive results, whose numbers are uncertain, are shown with a selection of clear calls. Calls come from the whole dose curve; as a rule, active = well fitted inhibition curve with a large enough effect; inconclusive = small, poorly fitted or top-dose-only effect; inactive = no such curve, though single readings can be large or run the other way. Potencies of inconclusive entries are doubtful fits and often do not repeat.
% is set by controls: 0 for no effect and ±100 for the full control effect; potency is the fitted concentration of half-maximal effect; tags give direction and shape of the fitted curve.
Note: nearly all actives have a fitted effect of over 75% in size.

The compounds below were run against Regulator of G-protein signaling 4 (Homo sapiens) (UniProt P49798) (assay: Inhibitors of Regulator of G Protein Signaling (RGS) 4: qHTS). Conditions: Transcreener GDP fluorescence polarization, RGS4-accelerated GTP hydrolysis; series mostly up to 114 µM; activity change, negative = inhibition: at the top concentration.
Chain of UniProt P49798 (P49798 whole entry, looked up, the tested form may be a part): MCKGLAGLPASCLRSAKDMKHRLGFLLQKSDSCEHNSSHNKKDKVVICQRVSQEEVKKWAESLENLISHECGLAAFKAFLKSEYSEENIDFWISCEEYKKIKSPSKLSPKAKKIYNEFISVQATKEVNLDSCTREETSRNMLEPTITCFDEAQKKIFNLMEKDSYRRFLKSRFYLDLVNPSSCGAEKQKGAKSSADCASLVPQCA
Text: G-protein-coupled receptors (GPCRs) are well-established targets for drug discovery and development. Members of the "regulator of G-protein signaling" (RGS)-protein superfamily have recently emerged as critical modulators of specific GPCR signaling pathways. […] Combining specific RGS domain inhibitors with existing GPCR agonists should potentiate cellular responses and could also increase the specificity of action of existing therapeutics. Small molecule modulators of RGS domain activity should also have clinical utility in inhibiting or potentiating the actions of endogenous GPCR agonists. In particular, the diversity of RGS proteins with highly localized and dynamically regulated distributions in the human brain makes this family of proteins attractive targets for pharmacotherapy of central nervous system (CNS) disorders such as Parkinson's disease, schizophrenia, and anxiety.
This assay was used to screen the NIH Molecular Libraries Small Molecule Repository (MLSMR) in order to identify a small molecule that inhibits RGS4.
NIH Chemical Genomics Center [NCGC]
NIH Molecular Libraries Probe Centers Network [MLPCN]
Assay Submitter (PI): David Siderovski, University of North Carolina Chapel Hill (School of Medicine)
Two microliters of 500nM (2x working concentration) is dispensed into black medium-binding solid-bottom Kalypsys plates. Then with the Kalypsys pintool 23nl of control and compounds are transferred; the control compound is […] CCG-4986 (working concentration). After a 10 minute incubation at room temperature 2ul of antibody is added with the Kalypsys dispenser; (-)RGS4/Transcreener GDP solution in columns 3 and 4 which consisted of 10nM (2x working concentration) Alexa633, 20uM GTP, and 20 ug/ml GDP antibody and (+)RGS4/Transcreener GDP solution in columns 1,2, and 5 to 48 which consists of 900nM RGS4 (2x working concentration), 10nM Alexa633, 20 ug/ml GDP antibody. The plate is centrifuged at 1000 RPM for 15 seconds to remove any possible bubbles and then incubated for 5 minutes at ambient room temperature. An initial fluorescent polarization read (620 nm/688 nm) is performed on the Envision before the plate is incubated for 90 minutes at 30 deg C at a relative humidity of 80%. The plate is once more centrifuged at 1000 RPM for 15 seconds and another Envision fluorescent polarization (620 nm/688 nm) read is carried out.
In the case of `CCOc1ccc(NC(=O)CSc2nnc(-c3ccccc3Cl)n2Cc2ccco2)cc1`, the “activity change, negative = inhibition” value is reported as inactive: 9.37%. In the case of `Cc1[nH]n(-c2cccc(Cl)c2)c(=O)c1C=NCc1ccco1`, the “activity change, negative = inhibition” value is reported as inactive: 3.7% [at 56.9 µM]. With `Cc1cc(S(=O)(=O)Nc2ccc(-c3ccc(N4CCCCC4)nn3)cc2)c(C)cc1Cl` the “activity change, negative = inhibition” value was inactive: 22.8%. `CN=C1N[C@H](c2ccccc2)N(c2ccccc2)S1` was tested, and the Potency was inconclusive: 17.8 µM [inhibitor, full curve, poor fit]. `O=C(NCc1cccc(Cl)c1)c1cc(COc2ccc3ncccc3c2)on1` was tested, and the “activity change, negative = inhibition” value was inactive: -11.2%. `O=C(Cc1ccccc1)NCC(=O)Nc1cc(Cl)ccc1Cl` was tested, and the Potency was inconclusive: 39.8 µM [inhibitor, partial curve, poor fit]. In the case of `COc1cccc(NC(=O)C2CSC3(C)CCC(=O)N23)c1` (centres undefined), the Potency is reported as inconclusive: 89.1 µM [inhibitor, single point]. In the case of `CN(c1ccccc1)S(=O)(=O)c1ccc(C(=O)OCC(=O)NCc2ccco2)cc1`, the Potency is reported as inconclusive: 100 µM [inhibitor, single point]. `COc1cc(SC#N)ccc1N=Cc1c(C)[nH]n(-c2cccc3ccccc23)c1=O` was tested, and the Potency was inconclusive: 100 µM [inhibitor, partial curve, poor fit]. For `Cc1cc(C)nc(SCC(=O)N/N=C/c2cccc([N+](=O)[O-])c2)n1`, the Potency was inconclusive: 56.2 µM [inhibitor, partial curve, poor fit]. For `COc1ccc(CC(=O)NC(C)c2nnc(SCC(=O)c3ccc(Br)cc3)n2C)cc1` (centres undefined), the Potency was inconclusive: 39.8 µM [inhibitor, partial curve, poor fit]. For `CC1=C(CC(=O)O)c2cc(F)ccc2/C1=C\c1ccc(S(C)=O)cc1` (centres undefined), the Potency was inconclusive: 26.7 µM [inhibitor, single point]. In the case of `O=C(Cn1cnc([N+](=O)[O-])n1)NCc1ccccc1`, the Potency is reported as inconclusive: 89.1 µM [inhibitor, single point]. In the case of `COc1ccc(-c2nc3cc(NC(=O)Cc4ccc(OC)c(OC)c4)ccc3o2)cc1`, the Potency is reported as inconclusive: 35.5 µM [inhibitor, full curve, poor fit]. With `Cn1c(=O)c2[nH]c(NCCCN3CCOCC3)nc2n(C)c1=O` the Potency was inconclusive: 89.1 µM [inhibitor, single point]. In the case of `CCCCc1nnc(NC(=O)CSc2nc(O)c(Cc3ccccc3)c(=O)[nH]2)s1`, the Potency is reported as inconclusive: 44.7 µM [inhibitor, partial curve, poor fit]. For `CO/N=C/C(=N\Nc1ccccc1)C(=O)c1ccccc1`, the Potency was inconclusive: 79.4 µM [inhibitor, partial curve, poor fit]. In the case of `O=C/C=C/c1c(-c2ccccc2)cc2oc3ccccc3cc1-2`, the Potency is reported as inconclusive: 79.4 µM [inhibitor, partial curve, poor fit]. In the case of `C=CCn1c(SCC(=O)c2ccc(CNC(C)=O)o2)nc2scc(C3CC3)c2c1=O`, the Potency is reported as inconclusive: 100 µM [inhibitor, single point]. In the case of `O=C(Nc1nnc(-c2ccncc2)s1)C1CCCO1` (centres undefined), the Potency is reported as inconclusive: 89.1 µM [inhibitor, partial curve, poor fit]. `Cn1nnc2sc3c(c2c1=O)CCCC3` was tested, and the Potency was inconclusive: 50.1 µM [inhibitor, partial curve, poor fit]. For `COc1ccccc1NS(=O)(=O)c1cc(NC(=O)c2sccc2C)ccc1N1CCCC1`, the Potency was inconclusive: 17.8 µM [inhibitor, full curve, poor fit]. For `COc1ccc2cc(C(=O)C3CCCN(C(=O)c4cc(=O)n(C)c(=O)n4C)C3)ccc2c1` (centres undefined), the Potency was inconclusive: 28.2 µM [inhibitor, full curve, poor fit]. For `C[N+]1(CCCCC[N+]2(C)CCCC2)CCCC1`, the Potency was inconclusive: 0.0843 µM [inhibitor, full curve, poor fit]. In the case of `CC(C)(CNC(=O)c1ccc(Br)o1)N1CCOCC1`, the “activity change, negative = inhibition” value is reported as inactive: 4.93%. `Cc1sc(NC(=O)c2cccs2)c(C(N)=O)c1C` was tested, and the Potency was inconclusive: 56.2 µM [inhibitor, partial curve, poor fit]. For `COc1ccccc1NC(=O)c1c(NCc2ccc(C)o2)sc2c1CCC(C)C2` (centres undefined), the Potency was inconclusive: 35.5 µM [inhibitor, partial curve, poor fit]. In the case of `COCCN(C(=O)COC(=O)c1cc2c(s1)CCC2)c1c(N)n(Cc2ccccc2)c(=O)[nH]c1=O`, the Potency is reported as inconclusive: 50.1 µM [inhibitor, partial curve, poor fit]. `CCOc1cc(C2Nc3ccccc3NC3=C2C(=O)CC(C)(C)C3)ccc1O` (centres undefined) was tested, and the Potency was inconclusive: 89.1 µM [inhibitor, single point]. With `O=C(O)CSCC(=O)Nc1ccc(-c2nc3ccccc3s2)cc1` the Potency was inconclusive: 50.1 µM [inhibitor, partial curve, poor fit]. `N#CC(C#N)=C1C=CC=CN1/C(=C\c1ccco1)C(=O)c1ccccc1` was tested, and the Potency was inconclusive: 112 µM [inhibitor, partial curve, poor fit]. In the case of `C=CC[n+]1ccc2ccccc2c1C`, the Potency is reported as inconclusive: 79.4 µM [inhibitor, partial curve, poor fit]. `N#C/C(=C\c1ccccn1)c1nc2ccccc2s1` was tested, and the “activity change, negative = inhibition” value was inactive: -35.1%. With `CCSc1ccc(-c2nn(-c3ccccc3)cc2/C=C(/C#N)C(=O)NCCCOC)cc1` the “activity change, negative = inhibition” value was inactive: 0.528%. In the case of `COC(=O)c1ccc(COc2ccc(/C=C/C(=O)c3ccc(OC)c(CSCC(=O)O)c3)cc2OC)cc1`, the Potency is reported as inconclusive: 79.4 µM [inhibitor, partial curve, poor fit]. For `COCCN=C1Sc2nc3c(C)cccc3cc2CN1Cc1ccco1`, the Potency was inconclusive: 79.4 µM [inhibitor, partial curve, poor fit]. In the case of `O=C1C=CC2(O[C@H](c3ccccc3)[C@@H](c3ccccc3)O2)[C@H](Sc2ccccc2O)C1`, the Potency is reported as inconclusive: 50.1 µM [inhibitor, partial curve, poor fit]. `Cc1ccc(/C=N/n2cnc3sc(C)c(C)c3c2=O)o1` was tested, and the Potency was inconclusive: 79.4 µM [inhibitor, partial curve, poor fit]. With `O=C(Nc1nc2c(s1)CCCC2)c1ccc(S(=O)(=O)N2CCCc3ccccc32)cc1` the “activity change, negative = inhibition” value was inactive: 7.76%.
